Reference: a compilation of properties of binary mixtures (doi:10.1021/je200600p)
Some of these densities may be calculated back from excess volumes.

Assay: xn = mol fraction of the nth substance listed
Conditions: 101 kPa

CC[n+]1ccn(C)c1.COP(=O)([O-])OC + CO
mass density [kg/m3]
Conditions	293.15 K	298.15 K	303.15 K	308.15 K	313.15 K	318.15 K	323.15 K	328.15 K	333.15 K
x2 = 0.198	1207.1	1203.7	1200.2	1196.8	1193.4	1190	1186.6	1183.3	1180
x2 = 0.399	1179.1	1175.6	1172.1	1168.6	1165.2	1161.7	1158.3	–	–
x2 = 0.598	1134.9	–	1127.6	1123.8	1120.2	1116.4	1112.6	1108.8	1105
x2 = 0.799	1049.1	1045.3	1041.4	1037.6	1033.8	–	1026.1	1022.3	1018.5

CCCC[n+]1ccn(C)c1.COP(=O)([O-])OC + O
mass density [kg/m3]
Conditions	293.15 K	298.15 K	303.15 K	308.15 K	313.15 K	318.15 K	323.15 K	328.15 K	333.15 K
x2 = 0.201	1165.7	1162.4	–	1155.9	1152.5	1149.2	1145.9	1142.6	1139.3
x2 = 0.398	1165.7	–	1159.1	1155.7	1152.4	–	1145.7	–	1139
x2 = 0.601	1162.9	1159.4	–	1152.5	1149	1145.5	1142	1138.5	1135.1
x2 = 0.799	1148.8	1145.2	1141.6	1137.9	–	1130.3	1126.6	1122.8	1118.9

CC[n+]1ccn(C)c1.COP(=O)([O-])OC + CCO
mass density [kg/m3]
Conditions	293.15 K	298.15 K	303.15 K	308.15 K	313.15 K	318.15 K	323.15 K	328.15 K	333.15 K
x2 = 0.199	1196.1	1192.7	1189.2	1185.8	1182.4	1179	1175.6	–	1168.9
x2 = 0.398	1158.2	–	–	1147.7	1144.2	–	1137.3	1133.9	1130.5
x2 = 0.598	1098.9	–	1091.7	1088.1	1084.5	–	1077.4	1073.8	1070.3
x2 = 0.798	998.8	995	991.2	–	983.7	979.9	976.1	972.3	968.6

CC[n+]1ccn(C)c1.COP(=O)([O-])OC + O
mass density [kg/m3]
Conditions	293.15 K	298.15 K	303.15 K	308.15 K	313.15 K	318.15 K	323.15 K	328.15 K	333.15 K
x2 = 0.198	–	–	–	1213.2	1209.9	–	1203.2	1199.8	–
x2 = 0.399	1222.6	1219.2	1215.8	1212.5	1209.1	–	1202.4	–	1195.6
x2 = 0.6	1217.9	1214.4	1211	1207.5	1204.1	1200.6	1197.1	1193.6	1190.1
x2 = 0.799	1195	1191.4	1187.7	1184	1180.2	–	1172.7	1168.8	1165

CCCC[n+]1ccn(C)c1.COP(=O)([O-])OC + CO
mass density [kg/m3]
Conditions	293.15 K	298.15 K	303.15 K	308.15 K	313.15 K	318.15 K	323.15 K	328.15 K	333.15 K
x2 = 0.203	1152.3	1149	1145.6	1142.3	1139	1135.6	1132.3	1129	1125.7
x2 = 0.404	1132.5	1129.1	1125.7	–	1118.9	–	1112.1	1108.7	1105.4
x2 = 0.6	1098.2	1094.6	1091.1	1087.5	1083.9	1080.4	1076.8	1073.1	1069.3
x2 = 0.8	–	1022.9	1019	1015.5	–	1008	1004.2	1000.5	996.7

CCCC[n+]1ccn(C)c1.COP(=O)([O-])OC + CCO
mass density [kg/m3]
Conditions	293.15 K	298.15 K	303.15 K	308.15 K	313.15 K	318.15 K	323.15 K	328.15 K	333.15 K
x2 = 0.201	1144.7	1141.4	1138.1	–	1131.4	1128.1	1124.8	1121.5	1118.2
x2 = 0.399	–	–	1108	1104.6	–	–	–	–	–
x2 = 0.6	1069	1065.5	1061.9	1058.4	1054.9	1051.4	1047.9	1044.3	1040.8
x2 = 0.8	986.3	982.6	978.8	–	–	967.7	–	–	956.5
